Source: the supplement of paper PMC10369915
This is one part of the list. Rule as the data show it: active = 3.2 or more and inactive = the rest. Only a few entries rise above the background.

These binders were tested against SHP2 C-SH2 domain E139D (assay: enrichment score (SH2-bound / input frequency) (ratio); bacterial display of known human phosphotyrosine sites (pTyr-Var adds point mutants) read by sequencing; higher = stronger binding; tyrosines were phosphorylated by kinases first). Conditions: peptide library: pTyr-Var.
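Also: displayed peptides selected on beads carrying the immobilized SH2 domain, with library peptides lacking any tyrosine serving as negative controls.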

| Binder | enrichment score |
| --- | --- |
| TKYVAYIESQG [KDM4B_Y34_N29T] | inactive: 0.943 |
| ADYYDYGRGLS [KHDRBS3_Y304_H306R] | inactive: 0.819 |
| SAEEDYKADAK [KCNT1_Y876_M877K] | inactive: 0.4 |
| ADFFDYGHGLS [KHDRBS3_Y304_YF] | inactive: 0.847 |
| FSVDSYDSSVR [KCNQ1_Y461_G460S] | inactive: 0.988 |
| LYSINYLHFGD [KDM4C_Y201_E206D] | active: 3.94 |
| TLMNAYSSCSH [KIF11_Y231_R234C] | inactive: 0.86 |
| VVTGLYEKPSL [KIR3DS1_Y221] | inactive: 1.08 |
| TLMNAYSSRCH [KIF11_Y231_S235C] | inactive: 0.644 |
| PQEVMYAQLDH [KIR3DL2_Y398_T397M] | inactive: 1.85 |
| TKEPKYGGAGS [KIAA1210_Y1615_E1616G] | inactive: 0.533 |
| FSVDGYDSSVR [KCNQ1_Y461] | inactive: 0.928 |
| KDLPNYNWKSF [KISS1_Y112_N115K] | inactive: 0.742 |
| ELQGTYTSLQQ [KIF3C_Y574_R571Q] | inactive: 0.877 |
| PPNSPYIGSSP [KCNT1_Y740] | inactive: 0.596 |
| FPRAWYRRSIA [KIAA1109_Y4272] | inactive: 0.424 |
| QSSEGYDLGDR [KIAA1210_Y564_G565D] | inactive: 0.597 |
| AKFLGYPPPEI [KDR_Y357_YF] | inactive: 1.34 |
| KDLPNYNWNSF [KISS1_Y112] | inactive: 1.37 |

Each binder was assayed against SHP2 C-SH2 domain wild-type in the same assay as above. Conditions: peptide library: pTyr-Var.

| Binder | enrichment score |
| --- | --- |
| TKYVAYIESQG [KDM4B_Y34_N29T] | inactive: 2.2 |
| ADYYDYGRGLS [KHDRBS3_Y304_H306R] | inactive: 0.788 |
| SAEEDYKADAK [KCNT1_Y876_M877K] | inactive: 0.309 |
| ADFFDYGHGLS [KHDRBS3_Y304_YF] | inactive: 0.879 |
| FSVDSYDSSVR [KCNQ1_Y461_G460S] | inactive: 0.904 |
| LYSINYLHFGD [KDM4C_Y201_E206D] | active: 4.52 |
| TLMNAYSSCSH [KIF11_Y231_R234C] | inactive: 0.916 |
| VVTGLYEKPSL [KIR3DS1_Y221] | inactive: 0.579 |
| TLMNAYSSRCH [KIF11_Y231_S235C] | inactive: 0.807 |
| PQEVMYAQLDH [KIR3DL2_Y398_T397M] | inactive: 2.78 |
| TKEPKYGGAGS [KIAA1210_Y1615_E1616G] | inactive: 0.557 |
| FSVDGYDSSVR [KCNQ1_Y461] | inactive: 0.621 |
| KDLPNYNWKSF [KISS1_Y112_N115K] | inactive: 0.722 |
| ELQGTYTSLQQ [KIF3C_Y574_R571Q] | inactive: 1.18 |
| PPNSPYIGSSP [KCNT1_Y740] | inactive: 0.472 |
| FPRAWYRRSIA [KIAA1109_Y4272] | inactive: 0.222 |
| QSSEGYDLGDR [KIAA1210_Y564_G565D] | inactive: 0.578 |
| AKFLGYPPPEI [KDR_Y357_YF] | inactive: 1.17 |
| KDLPNYNWNSF [KISS1_Y112] | inactive: 0.973 |

These binders were tested against SHP2 N-SH2 domain L43F in the same assay as above. Conditions: peptide library: pTyr-Var.

| Binder | enrichment score |
| --- | --- |
| TKYVAYIESQG [KDM4B_Y34_N29T] | inactive: 0.996 |
| ADYYDYGRGLS [KHDRBS3_Y304_H306R] | inactive: 0.8 |
| SAEEDYKADAK [KCNT1_Y876_M877K] | inactive: 0.597 |
| ADFFDYGHGLS [KHDRBS3_Y304_YF] | inactive: 0.985 |
| FSVDSYDSSVR [KCNQ1_Y461_G460S] | inactive: 1.28 |
| LYSINYLHFGD [KDM4C_Y201_E206D] | active: 4.94 |
| TLMNAYSSCSH [KIF11_Y231_R234C] | inactive: 0.956 |
| VVTGLYEKPSL [KIR3DS1_Y221] | inactive: 1.05 |
| TLMNAYSSRCH [KIF11_Y231_S235C] | inactive: 0.649 |
| PQEVMYAQLDH [KIR3DL2_Y398_T397M] | active: 7.39 |
| TKEPKYGGAGS [KIAA1210_Y1615_E1616G] | inactive: 0.494 |
| FSVDGYDSSVR [KCNQ1_Y461] | inactive: 0.626 |
| KDLPNYNWKSF [KISS1_Y112_N115K] | inactive: 0.74 |
| ELQGTYTSLQQ [KIF3C_Y574_R571Q] | inactive: 1.38 |
| PPNSPYIGSSP [KCNT1_Y740] | inactive: 0.508 |
| FPRAWYRRSIA [KIAA1109_Y4272] | inactive: 0.288 |
| QSSEGYDLGDR [KIAA1210_Y564_G565D] | inactive: 0.706 |
| AKFLGYPPPEI [KDR_Y357_YF] | inactive: 1.45 |
| KDLPNYNWNSF [KISS1_Y112] | inactive: 0.98 |

These binders were tested against SHP2 N-SH2 domain T42A in the same assay as above. Conditions: peptide library: pTyr-Var.

| Binder | enrichment score |
| --- | --- |
| TKYVAYIESQG [KDM4B_Y34_N29T] | inactive: 2.1 |
| ADYYDYGRGLS [KHDRBS3_Y304_H306R] | inactive: 0.69 |
| SAEEDYKADAK [KCNT1_Y876_M877K] | inactive: 0.402 |
| ADFFDYGHGLS [KHDRBS3_Y304_YF] | inactive: 0.756 |
| FSVDSYDSSVR [KCNQ1_Y461_G460S] | inactive: 0.83 |
| LYSINYLHFGD [KDM4C_Y201_E206D] | active: 6.72 |
| TLMNAYSSCSH [KIF11_Y231_R234C] | inactive: 0.856 |
| VVTGLYEKPSL [KIR3DS1_Y221] | inactive: 0.849 |
| TLMNAYSSRCH [KIF11_Y231_S235C] | inactive: 0.693 |
| PQEVMYAQLDH [KIR3DL2_Y398_T397M] | active: 9.74 |
| TKEPKYGGAGS [KIAA1210_Y1615_E1616G] | inactive: 0.46 |
| FSVDGYDSSVR [KCNQ1_Y461] | inactive: 0.476 |
| KDLPNYNWKSF [KISS1_Y112_N115K] | inactive: 0.524 |
| ELQGTYTSLQQ [KIF3C_Y574_R571Q] | inactive: 1.11 |
| PPNSPYIGSSP [KCNT1_Y740] | inactive: 0.486 |
| FPRAWYRRSIA [KIAA1109_Y4272] | inactive: 0.204 |
| QSSEGYDLGDR [KIAA1210_Y564_G565D] | inactive: 0.557 |
| AKFLGYPPPEI [KDR_Y357_YF] | inactive: 1.37 |
| KDLPNYNWNSF [KISS1_Y112] | inactive: 0.696 |

Each binder was assayed against SHP2 N-SH2 domain T52S in the same assay as above. Conditions: peptide library: pTyr-Var.

| Binder | enrichment score |
| --- | --- |
| TKYVAYIESQG [KDM4B_Y34_N29T] | inactive: 0.886 |
| ADYYDYGRGLS [KHDRBS3_Y304_H306R] | inactive: 0.69 |
| SAEEDYKADAK [KCNT1_Y876_M877K] | inactive: 0.426 |
| ADFFDYGHGLS [KHDRBS3_Y304_YF] | inactive: 0.843 |
| FSVDSYDSSVR [KCNQ1_Y461_G460S] | inactive: 1.24 |
| LYSINYLHFGD [KDM4C_Y201_E206D] | active: 4.4 |
| TLMNAYSSCSH [KIF11_Y231_R234C] | inactive: 0.717 |
| VVTGLYEKPSL [KIR3DS1_Y221] | inactive: 0.792 |
| TLMNAYSSRCH [KIF11_Y231_S235C] | inactive: 0.768 |
| PQEVMYAQLDH [KIR3DL2_Y398_T397M] | active: 7.34 |
| TKEPKYGGAGS [KIAA1210_Y1615_E1616G] | inactive: 0.541 |
| FSVDGYDSSVR [KCNQ1_Y461] | inactive: 0.834 |
| KDLPNYNWKSF [KISS1_Y112_N115K] | inactive: 0.789 |
| ELQGTYTSLQQ [KIF3C_Y574_R571Q] | inactive: 1.4 |
| PPNSPYIGSSP [KCNT1_Y740] | inactive: 0.449 |
| FPRAWYRRSIA [KIAA1109_Y4272] | inactive: 0.164 |
| QSSEGYDLGDR [KIAA1210_Y564_G565D] | inactive: 0.563 |
| AKFLGYPPPEI [KDR_Y357_YF] | inactive: 1.35 |
| KDLPNYNWNSF [KISS1_Y112] | inactive: 0.837 |

The binders below were run against SHP2 N-SH2 domain wild-type in the same assay as above. Conditions: peptide library: pTyr-Var.

| Binder | enrichment score |
| --- | --- |
| TKYVAYIESQG [KDM4B_Y34_N29T] | inactive: 0.955 |
| ADYYDYGRGLS [KHDRBS3_Y304_H306R] | inactive: 0.82 |
| SAEEDYKADAK [KCNT1_Y876_M877K] | inactive: 0.451 |
| ADFFDYGHGLS [KHDRBS3_Y304_YF] | inactive: 1.2 |
| FSVDSYDSSVR [KCNQ1_Y461_G460S] | inactive: 0.889 |
| LYSINYLHFGD [KDM4C_Y201_E206D] | active: 3.52 |
| TLMNAYSSCSH [KIF11_Y231_R234C] | inactive: 0.973 |
| VVTGLYEKPSL [KIR3DS1_Y221] | inactive: 0.844 |
| TLMNAYSSRCH [KIF11_Y231_S235C] | inactive: 0.85 |
| PQEVMYAQLDH [KIR3DL2_Y398_T397M] | active: 3.78 |
| TKEPKYGGAGS [KIAA1210_Y1615_E1616G] | inactive: 0.535 |
| FSVDGYDSSVR [KCNQ1_Y461] | inactive: 0.764 |
| KDLPNYNWKSF [KISS1_Y112_N115K] | inactive: 0.87 |
| ELQGTYTSLQQ [KIF3C_Y574_R571Q] | inactive: 0.759 |
| PPNSPYIGSSP [KCNT1_Y740] | inactive: 0.658 |
| FPRAWYRRSIA [KIAA1109_Y4272] | inactive: 0.242 |
| QSSEGYDLGDR [KIAA1210_Y564_G565D] | inactive: 0.607 |
| AKFLGYPPPEI [KDR_Y357_YF] | inactive: 1.33 |
| KDLPNYNWNSF [KISS1_Y112] | inactive: 1.13 |
